In test [1] the target is T1, endogenous ADAP of iBMMs (mouse (endogenous in iBMMs)) (UniProt O35601).
T1 sequence: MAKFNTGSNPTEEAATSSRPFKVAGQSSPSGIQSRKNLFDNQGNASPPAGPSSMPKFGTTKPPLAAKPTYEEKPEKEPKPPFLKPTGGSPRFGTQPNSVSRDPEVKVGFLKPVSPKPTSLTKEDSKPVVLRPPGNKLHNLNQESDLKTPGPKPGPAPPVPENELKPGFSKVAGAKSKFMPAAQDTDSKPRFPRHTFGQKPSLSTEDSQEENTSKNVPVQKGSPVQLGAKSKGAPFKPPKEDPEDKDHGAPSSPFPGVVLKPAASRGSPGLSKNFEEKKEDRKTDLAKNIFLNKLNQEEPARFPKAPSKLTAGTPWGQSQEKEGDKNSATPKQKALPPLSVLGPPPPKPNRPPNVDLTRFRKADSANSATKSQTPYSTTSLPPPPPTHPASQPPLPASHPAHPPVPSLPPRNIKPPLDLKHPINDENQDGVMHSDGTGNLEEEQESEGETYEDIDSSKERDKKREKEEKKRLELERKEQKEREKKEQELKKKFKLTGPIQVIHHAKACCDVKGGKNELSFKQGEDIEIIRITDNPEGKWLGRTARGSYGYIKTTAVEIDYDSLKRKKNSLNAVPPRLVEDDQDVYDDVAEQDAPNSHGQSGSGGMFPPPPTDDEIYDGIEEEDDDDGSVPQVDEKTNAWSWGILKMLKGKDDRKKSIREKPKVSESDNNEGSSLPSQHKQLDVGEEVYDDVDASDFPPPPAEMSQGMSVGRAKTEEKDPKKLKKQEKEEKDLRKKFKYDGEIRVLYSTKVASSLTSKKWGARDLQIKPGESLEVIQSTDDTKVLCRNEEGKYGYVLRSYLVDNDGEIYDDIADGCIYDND
As to the kind of experiment: co-IP; whole-cell lysates of WT iBMMs, untreated or LPS (1 μg/ml, 12 h); immunoprecipitation with anti-ADAP or control IgG, immunoblot with METTL3 antibody; endogenous proteins.

Chains of the proteins cited; added tags and fusions are not shown. Lines headed by an entry give the natural chain unless they say otherwise; changes in a name come on top.
UniProt Q86U44: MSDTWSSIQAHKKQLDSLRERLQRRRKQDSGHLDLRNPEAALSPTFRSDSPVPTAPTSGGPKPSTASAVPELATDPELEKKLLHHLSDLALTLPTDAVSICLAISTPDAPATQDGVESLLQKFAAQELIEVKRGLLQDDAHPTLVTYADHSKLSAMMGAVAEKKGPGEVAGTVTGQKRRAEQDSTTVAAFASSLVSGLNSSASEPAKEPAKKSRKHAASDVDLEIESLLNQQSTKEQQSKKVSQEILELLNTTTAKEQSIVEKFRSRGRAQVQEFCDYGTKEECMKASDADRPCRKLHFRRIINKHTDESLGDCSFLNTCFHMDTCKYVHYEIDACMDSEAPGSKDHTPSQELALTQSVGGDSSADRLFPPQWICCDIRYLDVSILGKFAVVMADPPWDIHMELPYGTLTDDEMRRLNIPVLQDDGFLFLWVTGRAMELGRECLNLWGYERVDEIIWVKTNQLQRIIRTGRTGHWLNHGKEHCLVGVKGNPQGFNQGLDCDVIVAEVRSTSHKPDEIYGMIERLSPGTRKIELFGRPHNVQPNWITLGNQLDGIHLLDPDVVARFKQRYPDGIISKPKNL
UniProt Q8C3P7: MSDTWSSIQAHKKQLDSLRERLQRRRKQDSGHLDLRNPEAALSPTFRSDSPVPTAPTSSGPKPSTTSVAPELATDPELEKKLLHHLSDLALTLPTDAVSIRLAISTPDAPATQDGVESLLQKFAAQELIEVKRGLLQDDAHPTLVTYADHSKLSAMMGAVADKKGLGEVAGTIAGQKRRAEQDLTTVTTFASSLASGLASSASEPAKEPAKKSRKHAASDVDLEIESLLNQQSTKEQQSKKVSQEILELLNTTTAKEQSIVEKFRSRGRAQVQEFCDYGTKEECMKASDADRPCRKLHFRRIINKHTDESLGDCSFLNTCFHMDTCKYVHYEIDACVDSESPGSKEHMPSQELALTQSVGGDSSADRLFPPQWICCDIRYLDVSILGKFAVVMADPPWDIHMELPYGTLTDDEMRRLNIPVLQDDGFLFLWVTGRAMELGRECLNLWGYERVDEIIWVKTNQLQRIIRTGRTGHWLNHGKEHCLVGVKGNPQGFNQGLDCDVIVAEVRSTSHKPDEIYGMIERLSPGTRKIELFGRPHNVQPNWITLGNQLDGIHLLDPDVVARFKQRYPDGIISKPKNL

The target in test [2] is T2, HA-ADAP (adhesion and degranulation-protein adapter protein), full length (UniProt O15117).
T2 sequence: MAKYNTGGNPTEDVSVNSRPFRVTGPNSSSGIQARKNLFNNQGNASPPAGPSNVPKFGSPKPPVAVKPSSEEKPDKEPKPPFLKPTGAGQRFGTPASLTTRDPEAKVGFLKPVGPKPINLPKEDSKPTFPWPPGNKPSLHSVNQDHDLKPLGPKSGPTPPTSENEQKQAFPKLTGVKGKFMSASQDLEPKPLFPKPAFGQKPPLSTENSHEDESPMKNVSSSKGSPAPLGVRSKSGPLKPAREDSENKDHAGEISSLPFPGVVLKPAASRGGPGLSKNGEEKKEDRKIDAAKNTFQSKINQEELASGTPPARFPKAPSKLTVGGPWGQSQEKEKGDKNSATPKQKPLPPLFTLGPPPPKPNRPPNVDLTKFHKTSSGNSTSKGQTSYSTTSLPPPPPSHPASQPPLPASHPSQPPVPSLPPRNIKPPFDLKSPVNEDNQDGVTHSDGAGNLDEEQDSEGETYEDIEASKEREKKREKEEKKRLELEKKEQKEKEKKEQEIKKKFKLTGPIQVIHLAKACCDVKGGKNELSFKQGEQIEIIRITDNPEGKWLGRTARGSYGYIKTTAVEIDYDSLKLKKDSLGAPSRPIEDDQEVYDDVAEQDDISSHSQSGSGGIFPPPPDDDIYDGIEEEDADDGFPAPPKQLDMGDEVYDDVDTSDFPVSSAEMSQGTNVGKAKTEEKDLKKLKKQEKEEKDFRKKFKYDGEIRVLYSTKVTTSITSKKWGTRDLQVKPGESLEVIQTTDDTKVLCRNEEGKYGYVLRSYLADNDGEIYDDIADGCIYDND
In words: co-IP; HEK 293T cells co-transfected (36-40 h); lysates (1% Triton X-100, 20 mM Tris-HCl pH 8.3, 150 mM NaCl) immunoprecipitated with anti-HA antibody and Protein A/G agarose at 4 °C, immunoblot with anti-FLAG, anti-MYC, anti-HA. For orientation: Immunoblotting shows a protein as a band on a membrane.

Test [3] addresses FLAG-METTL3 (methyltransferase-like 3), full length (UniProt Q86U44). As to the kind of experiment: co-IP; HEK 293T cells co-transfected with FLAG-METTL3 and HA-ADAP for 36 h; lysates immunoprecipitated with anti-FLAG antibody, immunoblot.

Results are given in words; binding and its absence hold for the method and conditions named. In cells and extracts the contact can be indirect. Some binding calls cover weakened binding; strength is not graded here. For some assays here: Tags and fused reporters may be left off the sequences shown.

In the case of “endogenous METTL3 of iBMMs (from UniProt Q8C3P7 1-580) (enzyme)”, in test [1], the binding result is given as “binds”.
For “truncated FLAG-METTL3, N-terminal region (residues 1-389) (from UniProt Q86U44 1-389) (domain or fragment)”, the binding result in test [2] is reported as “binds”.
The same measure, in the same setting: as for “FLAG-METTL3 (methyltransferase-like 3), full length (from UniProt Q86U44 1-580) (enzyme)”, the entry is “binds”.

B1: HA-ADAP (adhesion and degranulation-protein adapter protein), full length (protein, UniProt O15117 1-783)
chain: MAKYNTGGNPTEDVSVNSRPFRVTGPNSSSGIQARKNLFNNQGNASPPAGPSNVPKFGSPKPPVAVKPSSEEKPDKEPKPPFLKPTGAGQRFGTPASLTTRDPEAKVGFLKPVGPKPINLPKEDSKPTFPWPPGNKPSLHSVNQDHDLKPLGPKSGPTPPTSENEQKQAFPKLTGVKGKFMSASQDLEPKPLFPKPAFGQKPPLSTENSHEDESPMKNVSSSKGSPAPLGVRSKSGPLKPAREDSENKDHAGEISSLPFPGVVLKPAASRGGPGLSKNGEEKKEDRKIDAAKNTFQSKINQEELASGTPPARFPKAPSKLTVGGPWGQSQEKEKGDKNSATPKQKPLPPLFTLGPPPPKPNRPPNVDLTKFHKTSSGNSTSKGQTSYSTTSLPPPPPSHPASQPPLPASHPSQPPVPSLPPRNIKPPFDLKSPVNEDNQDGVTHSDGAGNLDEEQDSEGETYEDIEASKEREKKREKEEKKRLELEKKEQKEKEKKEQEIKKKFKLTGPIQVIHLAKACCDVKGGKNELSFKQGEQIEIIRITDNPEGKWLGRTARGSYGYIKTTAVEIDYDSLKLKKDSLGAPSRPIEDDQEVYDDVAEQDDISSHSQSGSGGIFPPPPDDDIYDGIEEEDADDGFPAPPKQLDMGDEVYDDVDTSDFPVSSAEMSQGTNVGKAKTEEKDLKKLKKQEKEEKDFRKKFKYDGEIRVLYSTKVTTSITSKKWGTRDLQVKPGESLEVIQTTDDTKVLCRNEEGKYGYVLRSYLADNDGEIYDDIADGCIYDND
As for B1, the binding result in test [3] is given as “binds”.

B2: FLAG-METTL14 (protein, UniProt Q9HCE5 1-456)
chain: MDSRLQEIRERQKLRRQLLAQQLGAESADSIGAVLNSKDEQREIAETRETCRASYDTSAPNAKRKYLDEGETDEDKMEEYKDELEMQQDEENLPYEEEIYKDSSTFLKGTQSLNPHNDYCQHFVDTGHRPQNFIRDVGLADRFEEYPKLRELIRLKDELIAKSNTPPMYLQADIEAFDIRELTPKFDVILLEPPLEEYYRETGITANEKCWTWDDIMKLEIDEIAAPRSFIFLWCGSGEGLDLGRVCLRKWGYRRCEDICWIKTNKNNPGKTKTLDPKAVFQRTKEHCLMGIKGTVKRSTDGDFIHANVDIDLIITEEPEIGNIEKPVEIFHIIEHFCLGRRRLHLFGRDSTIRPGWLTVGPTLTNSNYNAETYASYFSAPNSYLTGCTEEIERLRPKSPPPKSKSDRGGGAPRGGGRGGTSAGRGRERNRSNFRGERGGFRGGRGGAHRGGFPPR
As for B2, the binding result in test [2] is “no binding”.

For the origin of these results see PMC12504520.
